{"source": "PubChem BioAssay AID624296", "about": "(National Center for Advancing Translational Sciences (NCATS), 2012)", "note": "In all, about 350,000 compounds went through this assay and about 9,900 (2.8%) were called active. The inconclusive results got no clear call from the source; some entries with a clear call stand among them for comparison. Calls come from the whole dose curve; as a rule, active = well fitted activation curve with a large enough effect; inconclusive = small, poorly fitted or top-dose-only effect; inactive = no such curve, though single readings can be large or run the other way. Potencies of inconclusive entries are left out as doubtful fits. Potency is the fitted concentration of half-maximal effect; tags give direction and shape of the fitted curve.", "data": [{"assay": "A quantitative high throughput screen for small molecules that induce DNA re-replication in MCF 10a normal breast cells; note: nearly all actives have a fitted effect of over 50% in size; for activity, positive = re-replication: % of control where 0% means no effect.", "conditions": "MCF 10A DNA re-replication, Hoechst nuclear intensity, 48 h; activity, positive = re-replication: at 46.1 µM (top of the series)", "values": [{"smiles": "COCOc1cc(O)c(C(=O)/C=C/c2ccccc2)c(OCOC)c1", "Potency": "inconclusive [activator, single point]"}, {"smiles": "COc1cc(NC(=S)NC(C)(C)C)c(OC)cc1Cl", "Potency": "inconclusive [activator, single point]"}, {"smiles": "O=C(NCc1ccco1)c1ccc(C(=O)NCc2ccco2)cc1", "activity, positive = re-replication": "inactive: 0.814%"}, {"smiles": "FC(F)(F)c1cnc(Sc2nc3nccc(-c4ccc(Cl)cc4)n3n2)c(Cl)c1", "Potency": "active: 3.26 µM"}, {"smiles": "CCN(CC)CCCN1C(=O)C(O)=C(C(=O)c2ccco2)C1c1ccc(OC(C)C)cc1", "note": "(stereo not drawn)", "Potency": "inconclusive [activator, single point]"}, {"smiles": "CCN(CC)c1ccc(/C=N/NC(=O)c2c(Cl)cnn2C)c(O)c1", "Potency": "active: 11.6 µM"}, {"smiles": "Cc1onc(-c2ccccc2)c1C(=O)NCc1cccnc1", "activity, positive = re-replication": "inactive: -3.61%"}, {"smiles": "Cc1ccc(OCc2n[nH]c(=S)n2-c2ccccc2)cc1C", "activity, positive = re-replication": "inactive: -3.12%"}, {"smiles": "COc1ccc(/C=C2\\CCc3ccccc3C2=O)c(OC)c1OC", "Potency": "inconclusive [activator, single point]"}, {"smiles": "C=CC(=O)Nc1cccc(Oc2ncnc3[nH]cc(-c4cnc5ccccc5c4)c23)c1", "activity, positive = re-replication": "inactive: 3.86%"}, {"smiles": "CC(C)(C)NC(=O)Cn1c(=O)c(=O)n(Cc2ccccc2)c2ccc(Cl)cc21", "activity, positive = re-replication": "inactive: 5.55%"}, {"smiles": "COC(=O)c1cc(Cl)c(NC(=O)c2cc(OC)c(OC)c(OC)c2)cc1OC", "Potency": "inconclusive [activator, full curve, poor fit]"}, {"smiles": "COc1ccc(CN(C)CCCn2cnc(C(=O)Nc3ccc(C)c(C)c3)n2)cc1OC", "Potency": "inconclusive [activator, partial curve, poor fit]"}, {"smiles": "CN(CC(=O)Nc1c(Cl)cccc1Cl)C(=O)c1ccccc1-c1nc2ccccc2s1", "activity, positive = re-replication": "inactive: 3.93%"}, {"smiles": "O=C(NCCc1ccccc1)C1CCC(=O)N1C1CCCC1", "note": "(stereo not drawn)", "activity, positive = re-replication": "inactive: -2.89%"}, {"smiles": "COC(=O)/C(=C\\c1ccc([N+](=O)[O-])o1)NC(=O)c1ccccc1", "activity, positive = re-replication": "inactive: 26.7%"}, {"smiles": "O=C(Nc1nnc(C2=COCCO2)o1)c1ccc([N+](=O)[O-])cc1", "activity, positive = re-replication": "inactive: 8.29%"}, {"smiles": "COCCCNc1nc(N)c([N+](=O)[O-])c(Nc2ccccc2OC)n1", "Potency": "inconclusive [activator, partial curve, poor fit]"}, {"smiles": "CCOC(=O)c1c(CC(C)C)csc1/N=C/C1C(=O)CCCC1=O", "Potency": "inconclusive [activator, single point]"}, {"smiles": "CCOC(=O)N/N=C\\c1ccc(OC/C=C/c2ccccc2)c(OC)c1", "Potency": "inconclusive [activator, single point]"}, {"smiles": "CCOC(=O)Cc1csc(/N=C/c2c(O)n(-c3ccc(C)c(C)c3)c(=O)c3ccccc23)n1", "Potency": "inconclusive [activator, single point]"}, {"smiles": "Cc1cc(N2CCN(C)CC2)ccc1NC(=O)c1c2c(nc3ccccc13)CCN(Cc1ccccc1)C2", "activity, positive = re-replication": "inactive: 23.6%"}, {"smiles": "CCCCCCN(C(=O)CCl)c1ccccc1", "Potency": "inconclusive [activator, single point]"}, {"smiles": "CCCCN1C(=O)C2Cc3c([nH]c4ccccc34)CN2C1=S", "note": "(stereo not drawn)", "Potency": "inconclusive [activator, single point]"}, {"smiles": "CCc1nnc(NC(=O)CSc2nccn2-c2cccc(C)c2C)s1", "Potency": "inconclusive [activator, partial curve, poor fit]"}, {"smiles": "CC(C)=CCN1CCN(Cc2nc(-c3ccc(F)cc3)cs2)CC1CCO", "note": "(stereo not drawn)", "Potency": "inconclusive [activator, partial curve]"}, {"smiles": "CC(=NNC(=S)N1CCN(c2ccccn2)CC1)c1ccccn1", "activity, positive = re-replication": "inactive: 0.142%"}, {"smiles": "O=C(O)CCc1ccc(-c2cccs2)n1Cc1ccco1", "Potency": "inconclusive [activator, single point]"}, {"smiles": "COc1ccc(-c2cc(N)n(S(=O)(=O)c3ccc(F)cc3)n2)cc1OC", "activity, positive = re-replication": "inactive: -1.2%"}, {"smiles": "CCN1CCN(c2cc(C(C)(C)C)nc3c(-c4ccccc4)c(C)nn23)CC1", "Potency": "inconclusive [activator, full curve, poor fit]"}, {"smiles": "CSc1ccc(/C=N\\NC(=O)COc2ccc(Cl)cc2Br)cc1", "Potency": "active: 13 µM"}, {"smiles": "O=[N+]([O-])c1ccc2nc(NN=Cc3ccc(O)cc3)sc2c1", "Potency": "active: 9.2 µM"}, {"smiles": "CSc1nc(-c2ccc(Cl)cc2)c(C#N)c(=O)n1C", "activity, positive = re-replication": "inactive: 0.231%"}, {"smiles": "COC(=O)CC1C(=O)NCCN1C(=O)CSc1nnc(Nc2ccc(C)cc2)s1", "note": "(stereo not drawn)", "Potency": "inconclusive [activator, single point]"}, {"smiles": "CCCCCCCCN1[C@@H](CC(=O)OC)c2cc(F)ccc2S1(=O)=O", "activity, positive = re-replication": "inactive: 7.79%"}, {"smiles": "O=P(CCCO)(Cc1ccccc1)Cc1ccccc1", "activity, positive = re-replication": "inactive: -35.2%"}, {"smiles": "CCCCCCSC1=C(C#N)C(c2ccc(C)o2)CC(=O)N1", "note": "(stereo not drawn)", "Potency": "inconclusive [activator, single point]"}, {"smiles": "O=c1cc(-c2ccccc2)oc2ccccc12", "Potency": "inconclusive [activator, full curve, poor fit]"}]}]}
